In PubChem BioAssay AID1508623 (National Center for Advancing Translational Sciences (NCATS), 2021):
The campaign covered roughly 48,000 compounds. About 450 (0.94%) were called active. The inconclusive results got no clear call from the source; some entries with a clear call stand among them for comparison. Calls follow the shape of the dose curve; as a rule, active = well fitted inhibition curve with a large enough effect; inconclusive = small, poorly fitted or top-dose-only effect; inactive = no such curve, though single readings can be large or run the other way. Potencies beside an inconclusive call are fits to weak or partial responses and may not hold up.

Test: Primary qHTS for Identification of Small Molecule Inhibitors of Huntingtin Promoter Activity; also: nearly all actives have a fitted effect of over 50% in size
Details: HEK293 HTT promoter firefly luciferase reporter (activity 0% = vehicle and -100% = no light), 24 h; activity change, negative = inhibition: at 57.5 µM (top of the series)
Outline: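 HEK293 luciferase promoter-reporter cells (2,500/well) plated 24 h, then compounds added at up to 57.5 uM final for 24 h at 37 °C. Firefly luminescence by Dual-Glo, normalized to vehicle (0%) and zero RLU (-100%).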
Potency is read from the fitted curve at half-maximal effect; tags tell the direction and shape of the fitted curve.

Structure (SMILES)	Potency	activity change, negative = inhibition
Cc1cc(OCCn2c(C3CC(=O)N(Cc4ccc(F)cc4)C3)nc3ccccc32)ccc1Cl (stereo not drawn)	inconclusive: 39.8 µM [inhibitor, single point]	–
O=C(CN1C(=O)C2CCCCN2c2ccc(C(=O)N3CCCC3)cc21)NCc1ccccc1 (stereo not drawn)	–	inactive: -9.38%
COc1ccc(-c2cc(C(F)(F)F)nc(S(=O)(=O)CCCC(=O)Nc3ccccc3C(F)(F)F)n2)cc1OC	inconclusive: 39.8 µM [inhibitor, single point]	–
COc1cccc(CNC(=O)Cn2cc3c(n2)-c2c(oc(C(=O)N4CCOCC4)c2C)CC3)c1	inconclusive: 17.8 µM [inhibitor, partial curve, poor fit]	–
COC(=O)c1ccc(CSc2nc3c([nH]c4ccccc43)c(=O)n2-c2cccc(OC)c2)o1	inconclusive: 31.6 µM [inhibitor, single point]	–
COc1ccc(CNC(=O)c2cc3c(=O)n(Cc4cccs4)ccc3nc2C)cc1	inconclusive: 7.94 µM [inhibitor, partial curve]	–
Cc1nn(Cc2ccccc2)c(C)c1NC(=O)c1cc(C(C)C)on1	inconclusive: 17.8 µM [inhibitor, partial curve]	–
Cc1cc(Nc2cc(NC(=O)c3c(Cl)cccc3Cl)ccn2)nc(N)n1	–	inactive: -15.9%
O=C(NCc1ccc(F)cc1)c1ccc(CS(=O)(=O)c2ccc(Cl)cc2)o1	inconclusive: 20 µM [inhibitor, partial curve, poor fit]	–
COc1ccccc1CNc1cc(-c2ccccc2)nc2nncn12	inconclusive: 35.5 µM [inhibitor, single point]	–
O=C(CN(c1ccc(Cl)c(C(F)(F)F)c1)S(=O)(=O)c1ccccc1)N1CCc2ccccc2C1	inconclusive: 2.82 µM [inhibitor, partial curve, poor fit]	–
Cc1nc2ccn(Cc3cccs3)c(=O)c2cc1C(=O)N1CCN(c2ccc(F)cc2)CC1	inconclusive: 25.1 µM [inhibitor, partial curve]	–
CN1c2cc(Cl)ccc2-c2nc(SCC(=O)Nc3ccc(F)cc3F)ncc2S1(=O)=O	inconclusive: 3.55 µM [inhibitor, full curve]	–
C[C@H](NCc1ccc(OCc2cccc(F)c2)cc1)C(N)=O	inconclusive: 5.44 µM [inhibitor, full curve, poor fit]	–
COc1ccc(OC2CCN(S(=O)(=O)c3ccc(OC)cc3)CC2)cc1	inconclusive: 28.2 µM [inhibitor, single point]	–
CCOC(=O)N1CCc2c(sc(NCc3ccc(OCC)cc3)c2C(=O)Nc2ccc(OC)cc2OC)C1	active: 10 µM	–
Clc1ccc(-c2noc3ncnc(NCCCN4CCN(c5ccccc5)CC4)c23)cc1	inconclusive: 25.1 µM [inhibitor, single point]	–
CCOc1ccccc1NC(=O)C(Cc1ccccc1)NS(=O)(=O)c1ccc(Br)s1 (stereo not drawn)	inconclusive: 39.8 µM [inhibitor, single point]	–
COc1ccc(CNS(=O)(=O)c2cc(C(=O)Nc3cc(Cl)cc(Cl)c3)ccc2F)cc1	inconclusive: 39.8 µM [inhibitor, single point]	–
CCc1ccc(CNC(=O)C(CC)n2ccc3cc(S(=O)(=O)N4CCCCC4)ccc32)cc1 (stereo not drawn)	inconclusive: 17.8 µM [inhibitor, partial curve, poor fit]	–

Structure (SMILES)	Potency	activity change, negative = inhibition
CCc1ccccc1Nc1nn2c(=O)c3ccc(C(=O)NCc4cccs4)cc3nc2s1	inconclusive: 3.98 µM [inhibitor, partial curve, poor fit]	–
Cc1cccc(C(=O)Nc2cccc(C(=O)OCc3cc(=O)n4c5c(sc4n3)CCCC5)c2)c1	inconclusive: 25.1 µM [inhibitor, partial curve, poor fit]	–
CCc1ccc(S(=O)(=O)c2nnn3c2nc(NCc2cccs2)c2sccc23)cc1	inconclusive: 35.5 µM [inhibitor, single point]	–
CCn1c(C)c(C)c2cc(C(=O)NCCc3cc(OC)c(OC)c(OC)c3)ccc21	inconclusive: 25.1 µM [inhibitor, single point]	–
COc1ccc(Cn2c(C(=O)O)c(CNCc3cccs3)c3ccc(C)cc32)cc1	–	inactive: -21.2%
Cc1cc(C)c(Nc2nn3c(=O)c4cc5c(cc4nc3s2)OCO5)c(C)c1	–	inactive: -9.79%
O=C(Nc1ccc2nc(SCC(=O)N3CCOCC3)sc2c1)c1ccc(F)cc1	inconclusive: 39.8 µM [inhibitor, single point]	–
COc1ccccc1C1C=C(c2ccc(F)cc2)Nc2nc(-c3ccc(Cl)cc3)nn21 (stereo not drawn)	inconclusive: 25.1 µM [inhibitor, partial curve, poor fit]	–
O=C(Cn1c(=O)oc2cc(S(=O)(=O)N3CCCCC3)ccc21)Nc1cccc(Cl)c1	inconclusive: 39.8 µM [inhibitor, partial curve, poor fit]	–
CCCCN1C(=O)c2[nH]nc(-c3ccccc3O)c2C1c1cccc(OCc2ccccc2)c1 (stereo not drawn)	inconclusive: 39.8 µM [inhibitor, single point]	–
Cc1ccccc1NC(=O)c1ccc(F)c(S(=O)(=O)N(C)Cc2ccccc2)c1	inconclusive: 28.2 µM [inhibitor, partial curve, poor fit]	–
CCOC(=O)C1CCN(c2ncnc3c2c(-c2ccccc2)cn3-c2cccc(C)c2)CC1	inconclusive: 28.2 µM [inhibitor, single point]	–
Cc1ccc(-c2nc3cc(C(C)C)ccc3o2)cc1NC(=O)c1cc2ccccc2o1	inconclusive: 3.16 µM [inhibitor, partial curve, poor fit]	–
CCc1ccc(CNC(=O)c2sc3ncccc3c2-n2c(C)ccc2C)cc1	inconclusive: 31.6 µM [inhibitor, partial curve]	–
Cc1ccc(C)n1-c1nnc(N2CCCC(C(=O)NCc3ccc(Cl)cc3)C2)s1 (stereo not drawn)	inconclusive: 35.5 µM [inhibitor, single point]	–
Cc1ccc(OCC(=O)Nc2ccc(S(=O)(=O)Nc3cc(C)nc(C)n3)cc2)c(Br)c1	–	inactive: -20.8%
Cc1ccc(CN2CCc3nc(N4CCN(c5ncccn5)CC4)ncc3C2)cc1	inconclusive: 10 µM [inhibitor, partial curve, poor fit]	–
COc1ccc(C2=CC(c3ccc(F)cc3)n3ncc(C(=O)Nc4ccc(C)cc4)c3N2)cc1 (stereo not drawn)	inconclusive: 28.2 µM [inhibitor, single point]	–
COc1ccccc1-c1nc2c(c(SCc3cccc(Cl)c3)n1)Cc1c(CO)cnc(C)c1O2	inconclusive: 22.4 µM [inhibitor, partial curve, poor fit]	–
CCc1ccc(C2c3c(-c4ccccc4O)n[nH]c3C(=O)N2Cc2ccncc2)cc1 (stereo not drawn)	inconclusive: 17.8 µM [inhibitor, partial curve, poor fit]	–

Structure (SMILES)	Potency	activity change, negative = inhibition
Cc1cn2c(=O)cc(COC(=O)c3cccc(NC(=O)COc4ccccc4Cl)c3)nc2s1	inconclusive: 10 µM [inhibitor, partial curve]	–
COc1cc(OC)cc(C(=O)Oc2c(Sc3ccccc3)c(C)nn2C(C)(C)C)c1	inconclusive: 28.2 µM [inhibitor, partial curve, poor fit]	–
O=C(Nc1cccs1)Nc1cc(C(F)(F)F)ccc1Cl	inconclusive: 39.8 µM [inhibitor, single point]	–
Cc1ccc(Cl)cc1N1CCN(C(=O)c2cnc(N3CCOCC3)c3ccccc23)CC1	inconclusive: 17.8 µM [inhibitor, partial curve, poor fit]	–
CCOC(=O)c1c(NC(=O)CSc2cn(CCNC(=O)c3ccccc3F)c3ccccc23)sc2c1CCC2	inconclusive: 39.8 µM [inhibitor, single point]	–
O=C(Nc1ccc2nc(SCC(=O)N3CCCc4ccccc43)sc2c1)c1cccc(F)c1	inconclusive: 15.8 µM [inhibitor, partial curve]	–
COc1cccc(CNC(=O)c2ccc(CSc3nc4ccncc4n3Cc3cccc(C)c3)cc2)c1	inconclusive: 25.1 µM [inhibitor, single point]	–
COc1cccc(N2CCN(C(=O)c3ccc4c(=O)n(CCc5ccccc5)c(=O)[nH]c4c3)CC2)c1	inconclusive: 17.8 µM [inhibitor, partial curve, poor fit]	–
CC(C)COC(=O)/C(C#N)=C\c1ccc(-c2ccccc2Cl)o1	inconclusive: 3.16 µM [inhibitor, partial curve, poor fit]	–
COc1ccc(C2=NS(=O)(=O)N(C)C(C(=O)Nc3cc(C)ccc3O)=C2)cc1OC	inconclusive: 14.1 µM [inhibitor, partial curve, poor fit]	–
Cc1cccc(N2C(=O)CSC23C(=O)N(Cc2cccc(F)c2)c2ccccc23)c1 (stereo not drawn)	inconclusive: 31.6 µM [inhibitor, partial curve, poor fit]	–
COc1ccccc1N1CCN(c2cc(C)nc3nncn23)CC1	inconclusive: 25.1 µM [inhibitor, single point]	–
COc1ccc(C)c2sc(N3CCN(C(=O)c4ccco4)CC3)nc12	–	inactive: -24.1%
Cc1nn2c(=O)cc(COC(=O)c3ccc(NC(=O)COc4ccccc4F)cc3)nc2s1	–	inactive: -15%
Cc1nc2c(c(C)nn2C(C)(C)C)c(C)c1CCC(=O)Nc1ccc(F)cc1	–	inactive: -19.3%
CC(=O)c1ccc(N2CCN(C(=O)CCCn3c(=O)[nH]c4ccsc4c3=O)CC2)cc1	–	inactive: 9.63%
CCC(=C(CC)c1ccc(O)cc1)c1ccc(O)cc1	inconclusive: 27.3 µM [inhibitor, partial curve]	–
Cc1nn(CC(=O)NCc2ccc(N(C)C)cc2)c(=O)c2nn(-c3ccccc3)c(C)c12	–	inactive: -8.91%
